Source: the supplement of paper PMC6089552
Out of some 3,200 compounds screened, about 300 (9.4%) showed activity. The entries are a selection whose mix differs from that of the whole data set.

System: A673/TR/shEF
Assay: cell viability (LOESS-normalised, relative to median of negative controls) (log2 ratio); higher = more viable cells (less compound effect), active = hit call of the paper (over 3 MAD below the median)
Conditions: treatment time: 72 h
Summary of the method: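 Doxycycline, present or absent from 24 h before compounds, was used to induce EWS-FLI1 shRNA knockdown in A673/TR/shEF Ewing sarcoma cells at 1,500 per well in 384-well plates. Cells then received library compounds at two or more concentrations, or DMSO controls, for three days. Viability was measured by CellTiter-Glo luminescence on an Envision reader, and per-plate LOESS correction, division by the negative-control median and log2 transformation followed.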

[1] = 0.25 µM, library screen: screen1, EWS-FLI1 expression: high (no doxycycline)
[2] = 0.25 µM, library screen: screen1, EWS-FLI1 expression: low (doxycycline-induced shRNA knockdown)
[3] = 0.25 µM, library screen: screen2, EWS-FLI1 expression: high (no doxycycline)
[4] = 0.25 µM, library screen: screen2, EWS-FLI1 expression: low (doxycycline-induced shRNA knockdown)
[5] = 2.5 µM, library screen: screen1, EWS-FLI1 expression: high (no doxycycline)
[6] = 2.5 µM, library screen: screen1, EWS-FLI1 expression: low (doxycycline-induced shRNA knockdown)
[7] = 2.5 µM, library screen: screen2, EWS-FLI1 expression: high (no doxycycline)
[8] = 2.5 µM, library screen: screen2, EWS-FLI1 expression: low (doxycycline-induced shRNA knockdown)
[9] = 25 µM, library screen: screen1, EWS-FLI1 expression: high (no doxycycline)
[10] = 2.8 µM, library screen: screen3, EWS-FLI1 expression: high (no doxycycline)
[11] = 2.8 µM, library screen: screen3, EWS-FLI1 expression: low (doxycycline-induced shRNA knockdown)
[12] = 8.3 µM, library screen: screen3, EWS-FLI1 expression: high (no doxycycline)
[13] = 8.3 µM, library screen: screen3, EWS-FLI1 expression: low (doxycycline-induced shRNA knockdown)
[14] = 25 µM, library screen: screen3, EWS-FLI1 expression: high (no doxycycline)
[15] = 25 µM, library screen: screen3, EWS-FLI1 expression: low (doxycycline-induced shRNA knockdown)

Measured: cell viability (log2)

CC[N+](C)(C)c1cccc(O)c1
inactive: [1] 0.144 | [2] 0.0309 | [3] 0.0704 | [4] 0.0832 | [5] 0.0778 | [6] 0.0123 | [7] 0.12 | [8] 0.118

NS(=O)(=O)c1cc(C2(O)NC(=O)c3ccccc32)ccc1Cl (stereo unspecified)
inactive: [1] 0.102 | [2] 0.0805 | [5] 0.216 | [6] 0.268

COc1ccc(-c2cc(=O)c3c(O)c(OC)c(OC)cc3o2)cc1O
active: [5] -0.654

CCCCCCCCCCCCCCCC(=O)OC/C=C(C)/C=C/C=C(C)/C=C/C1=C(C)CCCC1(C)C
inactive: [1] 0.183 | [2] 0.0654 | [5] 0.188 | [6] 0.0897

C=CC(N)CCC(=O)O (stereo unspecified)
inactive: [1] 0.0253 | [2] -0.041 | [3] 0.0784 | [4] 0.0772 | [5] 0.0496 | [6] 0.0738 | [7] 0.141 | [8] 0.0589

CC(=O)OCC(=O)[C@@]1(O)CC[C@H]2[C@@H]3CCC4=CC(=O)CC[C@]4(C)[C@H]3[C@@H](O)C[C@@]21C
inactive: [1] 0.0589 | [2] -0.00319 | [5] 0.113 | [6] -0.145

CC(C)c1c(C(=O)Nc2ccccc2)c(-c2ccccc2)c(-c2ccc(F)cc2)n1CC[C@@H](O)C[C@@H](O)CC(=O)O
inactive: [1] 0.091 | [2] 0.0242 | [5] 0.147 | [6] -0.0132

Cc1ccc(C(=O)NCCSc2ccccn2)cc1
inactive: [1] 0.109 | [2] 0.00816 | [5] 0.117 | [6] -0.0564

CCCCN(CCCC)CCCOC(=O)c1ccc(N)cc1
inactive: [1] 0.0783 | [2] 0.0927 | [5] 0.106 | [6] -0.00308

Cc1ccc(C(=O)c2ccc(CC(=O)O)n2C)cc1
inactive: [1] 0.104 | [2] 0.125 | [5] 0.166 | [6] 0.245

O=C(O)CN1C(=O)c2cccc3cccc(c23)C1=O
inactive: [1] 0.105 | [2] 0.11 | [5] 0.117 | [6] 0.138

CC(=O)OCC(=O)[C@@]1(O)CC[C@H]2[C@@H]3CCC4=CC(=O)CC[C@]4(C)[C@@]3(F)[C@@H](O)C[C@@]21C
inactive: [1] 0.0516 | [2] -0.128 | [5] 0.181 | [6] -0.216

O=C(O)CCCCCCCC(=O)O
inactive: [1] 0.000753 | [2] 0.0938 | [4] 0.0952 | [5] 0.149 | [6] 0.152 | [7] 0.0755 | [8] 0.0904
active: [3] -0.13

CC12CCC3C(CC3(C)C)C(C)(CCC1=O)O2 (stereo unspecified)
inactive: [1] 0.0597 | [2] -0.06 | [5] 0.125 | [6] 0.0256

CC(C)c1cc(/C=C(\C#N)C(=O)NCCCc2ccccc2)cc(C(C)C)c1O
active: [5] -0.147 | [9] -0.351

CC1(C)CCC(NC(=O)[C@@H](N)CCC(=O)O)CC1
inactive: [3] 0.0918 | [4] 0.112 | [7] 0.151 | [8] 0.102

O=C(O)C1CCNCC1
inactive: [3] 0.0886 | [4] 0.119 | [7] 0.109 | [8] 0.143

CCn1cc(C(=O)O)c(=O)c2cc(F)c(N3CCNCC3)nc21
inactive: [1] 0.0868 | [2] 0.172 | [5] 0.0894 | [6] 0.207

CC1(C)CCC=[N+]1[O-]
inactive: [3] 0.21 | [4] 0.0951 | [7] 0.15 | [8] 0.0623

CC(C(=O)O)c1cccc(Oc2ccccc2)c1 (stereo unspecified)
inactive: 0.103 µM, library screen: screen3, EWS-FLI1 expression: high (no doxycycline) 0.0391 | 0.103 µM, library screen: screen3, EWS-FLI1 expression: low (doxycycline-induced shRNA knockdown) 0.0624 | [1] 0.0482 | [2] -0.0414 | 0.308 µM, library screen: screen3, EWS-FLI1 expression: high (no doxycycline) 0.0175 | 0.308 µM, library screen: screen3, EWS-FLI1 expression: low (doxycycline-induced shRNA knockdown) 0.00626 | 0.926 µM, library screen: screen3, EWS-FLI1 expression: high (no doxycycline) -0.0113 | 0.926 µM, library screen: screen3, EWS-FLI1 expression: low (doxycycline-induced shRNA knockdown) 0.0467 | [5] 0.0813 | [6] 0.0314 | [10] -0.0127 | [11] 0.00407 | [12] -0.00977 | [13] 0.021 | [14] 0.017 | [15] -0.0553

COc1ccccc1C=CC(=O)O
inactive: [1] 0.0113 | [2] -0.0457 | [5] 0.102 | [6] 0.0515

Oc1ccc(C2CNCCc3c2cc(O)c(O)c3Cl)cc1 (stereo unspecified)
inactive: [3] 0.0664 | [4] 0.116 | [7] 0.116 | [8] 0.122

COc1ccccc1-c1coc2cc(O)ccc2c1=O
inactive: [1] 0.111 | [2] 0.0685 | [5] 0.111 | [6] -0.0147

O=C1OC(c2ccc(O)cc2)(c2ccc(O)cc2)c2ccccc21
inactive: [1] 0.134 | [2] -0.0327 | [5] 0.253 | [6] 0.217

COc1cc(OC)c2c(=O)cc(-c3ccccc3)oc2c1
inactive: [1] 0.103 | [2] 0.00884 | [5] 0.158 | [6] 0.121

COC(=O)C[C@H]1C(C)(C)[C@@H](O)[C@@H]2CC3=C4C=C(OC)O[C@@H](c5ccoc5)[C@]4(C)CCC3[C@@]1(C)C2=O (stereo partly specified)
inactive: [1] 0.0415 | [2] 0.0871 | [5] 0.0987 | [6] 0.00724

CCCCCCCCCCCCCCCC(=O)NCC(COP(=O)([O-])OCC[N+](C)(C)C)OCC (stereo unspecified)
inactive: [3] 0.198 | [4] 0.0364 | [7] 0.0761 | [8] -0.0192

CCCc1ncc(C[n+]2ccccc2C)c(N)n1
inactive: 0.025 µM, library screen: screen2, EWS-FLI1 expression: high (no doxycycline) 0.138 | 0.025 µM, library screen: screen2, EWS-FLI1 expression: low (doxycycline-induced shRNA knockdown) 0.0892 | [1] 0.134 | [2] 0.0903 | [3] 0.0943 | [4] 0.0537 | [5] 0.166 | [6] 0.229 | [7] 0.141 | [8] 0.0526 | 25 µM, library screen: screen2, EWS-FLI1 expression: high (no doxycycline) 0.107 | 25 µM, library screen: screen2, EWS-FLI1 expression: low (doxycycline-induced shRNA knockdown) 0.0399

Cc1cc(Nc2ccc(O)cc2)n2c(nc3ccccc32)c1C#N
inactive: [1] 0.079 | [2] 0.0759 | [5] 0.0987 | [6] 0.0687

CCN(CC)Cc1ccc(Nc2ccnc3cc(Cl)ccc23)cc1O
inactive: [1] 0.0722 | [2] 0.126 | [5] 0.197 | [6] 0.302

N#C/C(=C\c1ccc(O)c(O)c1)C(=O)Nc1ccccc1
active: [5] -0.16 | [9] -0.692
inactive: 0.025 µM, library screen: screen1, EWS-FLI1 expression: high (no doxycycline) 0.188 | 0.025 µM, library screen: screen1, EWS-FLI1 expression: low (doxycycline-induced shRNA knockdown) -0.0571 | [1] 0.155 | [2] 0.0428 | [3] 0.0861 | [4] 0.0194 | [6] 0.0541 | [7] 0.105 | [8] 0.00853 | 25 µM, library screen: screen1, EWS-FLI1 expression: low (doxycycline-induced shRNA knockdown) 0.0298

Nc1ccc(S(=O)(=O)NC(=O)c2ccccc2)cc1
inactive: [1] 0.0184 | [2] 0.0215 | [5] 0.0764 | [6] 0.0963

CCCC[C@@]1(C2CCCC2)Cc2cc(OCC(=O)O)c(Cl)c(Cl)c2C1=O
inactive: [3] -0.00877 | [4] 0.109 | [7] 0.0409 | [8] 0.0461

OC[C@H]1O[C@@H](O[C@@H]2[C@@H](CO)O[C@](O)(CO)[C@H]2O)[C@H](O)[C@@H](O)[C@H]1O
inactive: [1] 0.0803 | [2] -0.00929 | [5] 0.122 | [6] -0.0194

C=C(CC)C(=O)c1ccc(OCC(=O)O)c(Cl)c1Cl
inactive: [1] 0.131 | [2] 0.0533 | [5] 0.173 | [6] 0.177

CCNC(=O)[C@H]1O[C@@H](n2cnc3c(N)nc(NCCc4ccc(CCC(=O)O)cc4)nc32)[C@H](O)[C@@H]1O
inactive: [3] 0.0503 | [4] 0.0859 | [7] 0.00577 | [8] 0.0921

O=c1cc(-c2ccc(O)cc2)oc2cc(O[C@@H]3O[C@H](CO)[C@@H](O)[C@H](O)[C@H]3O[C@@H]3OC[C@](O)(CO)[C@H]3O)cc(O)c12
inactive: [1] 0.0435 | [2] 0.0313 | [5] 0.0845 | [6] 0.031

C[C@](N)(Cc1ccc(O)cc1)C(=O)O
inactive: [3] 0.132 | [4] 0.0842 | [7] 0.134 | [8] 0.0355

O=C1CC(c2ccccc2)Oc2ccccc21 (stereo unspecified)
inactive: [1] -0.00433 | [2] 0.123 | [5] 0.163 | [6] 0.184

CNc1ncnc2c1ncn2[C@@H]1O[C@H](CO)[C@@H](O)[C@H]1O
inactive: [3] 0.104 | [4] 0.0674 | [7] 0.0505 | [8] 0.098

N[C@@H](CC(=O)O)C(=O)O
active: [3] -0.146

c1ccc2c(c1)CCCC2C1=NCCN1 (stereo unspecified)
inactive: [1] 0.0777 | [2] 0.0443 | [3] 0.0558 | [4] 0.0569 | [5] 0.13 | [6] 0.185 | [7] 0.113 | [8] -0.0209

CCC(C)[C@H]1O[C@]2(CC[C@@H]1C)CC1C[C@@H](C/C=C(\C)[C@@H](O[C@H]3C[C@H](OC)[C@@H](OC4C[C@H](OC)[C@@H](O)[C@H](C)O4)[C@H](C)O3)[C@@H](C)/C=C/C=C3\CO[C@@H]4[C@H](O)C(C)=C[C@@H](C(=O)O1)[C@]34O)O2.CO[C@H]1CC(O[C@H]2[C@H](C)O[C@@H](O[C@@H]3/C(C)=C/C[C@@H]4CC(C[C@]5(CC[C@H](C)[C@@H](C(C)C)O5)O4)OC(=O)[C@@H]4C=C(C)[C@@H](O)[C@H]5OC/C(=C\C=C\[C@@H]3C)[C@]54O)C[C@@H]2OC)O[C@@H](C)[C@@H]1O (stereo partly specified)
active: [7] -0.104 | [10] -0.279 | [11] -0.285 | [12] -0.239 | [13] -0.115 | [14] -3.03 | [15] -1.99
